{
  "source": "the supplement of paper PMC10037445",
  "key": {"RAW-Dual [1]": {"test_system": "RAW-Dual", "test": "IRF Lucia reporter activity, fold change vs agonist alone; higher = enhanced IRF activity", "conditions": "agonist: MPLA (TLR4) […]", "method_in_brief": "(§1)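 Reporter activity is given as fold change relative to agonist-alone wells. To measure it, 50 nL of library stock was pin-tooled onto RAW-Dual macrophages (50,000 cells/well, DMEM, 384-well plates), a PRR agonist followed 1 h later, and cells stayed at 37 °C, 5% CO2. Twenty hours on, supernatant was assayed for IRF (QuantiLuc luminescence) and NF-κB (QuantiBlue, 620 nm absorbance), and wells under 70% of agonist-control IncuCyte confluency in both mask sets were marked cytotoxic.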"}, "RAW-Dual [2]": {"test_system": "RAW-Dual", "test": "IRF Lucia reporter activity, fold change vs agonist alone; cytotoxicity flag (confluency mask): cytotoxic (confluency <70% of control); higher = enhanced IRF activity", "method_in_brief": "as §1"}, "RAW-Dual [3]": {"test_system": "RAW-Dual", "test": "IRF Lucia reporter activity, fold change vs agonist alone; cytotoxicity flag (confluency mask): not cytotoxic; higher = enhanced IRF activity", "method_in_brief": "as §1"}, "[4]": {"conditions": "library stock concentration (final ~1000-fold dilution): 10 mM, cytotoxicity flag (confluency mask): not cytotoxic"}, "[5]": {"conditions": "agonist: 3'3'-cGAMP (STING) 10 ug/mL"}},
  "note": "“And” between values parts separate entries of the source, which are not always exact repeats. Identical values can stand only once. In all, about 2,900 compounds were measured (“IRF Lucia reporter activity, fold change vs agonist alone”: median about 0.9, highest 2% from about 2.8 on). Some of the results follow.",
  "data": [
    {"smiles": "CC(Cn1cnc2c(N)ncnc21)OCP(=O)(O)O", "note": "(stereo not given)", "values": [
      {"measurement": "IRF Lucia reporter activity", "setting": "RAW-Dual [1]; [4]", "result": 1.05}
    ]},
    {"smiles": "O=C(NCCCNc1nc(Nc2cccc(NC(=O)N3CCCC3)c2)ncc1I)c1cccs1", "values": [
      {"measurement": "IRF Lucia reporter activity", "setting": "RAW-Dual [1]; library stock concentration (final ~1000-fold dilution): 10 mM, cytotoxicity flag (confluency mask): cytotoxic (confluency <70% of control)", "result": 0.0149}
    ]},
    {"smiles": "O=C(NCCCNc1nc(Nc2cccc(NC(=O)N3CCCC3)c2)ncc1I)c1cccs1", "note": "(library stock concentration (final ~1000-fold dilution): 10 mM)", "values": [
      {"measurement": "IRF Lucia reporter activity", "setting": "RAW-Dual [2]; [5]", "result": "0.00803 and 0.0152"},
      {"measurement": "IRF Lucia reporter activity", "setting": "RAW-Dual [2]; agonist: LPS (TLR4) 0.1 ug/mL", "result": "0.0198 and 0.0131"}
    ]},
    {"smiles": "Cc1ccccc1C(=O)Nc1ccc(C(=O)N2CCCC(N(C)C)c3ccccc32)cc1", "note": "(stereo not given) (library stock concentration (final ~1000-fold dilution): 2 mM)", "values": [
      {"measurement": "IRF Lucia reporter activity", "setting": "RAW-Dual [3]; [5]", "result": 1.17},
      {"measurement": "IRF Lucia reporter activity", "setting": "RAW-Dual [3]; agonist: LPS (TLR4) 0.1 ug/mL", "result": 0.925}
    ]},
    {"smiles": "Cc1ccccc1C(=O)Nc1ccc(C(=O)N2CCCC(N(C)C)c3ccccc32)cc1", "note": "(stereo not given)", "values": [
      {"measurement": "IRF Lucia reporter activity", "setting": "RAW-Dual [1]; library stock concentration (final ~1000-fold dilution): 2 mM, cytotoxicity flag (confluency mask): not cytotoxic", "result": 1.18}
    ]},
    {"smiles": "Cc1ccc(C)c(N/C=C/C(=O)c2ccccc2)c1", "note": "(library stock concentration (final ~1000-fold dilution): 10 mM)", "values": [
      {"measurement": "IRF Lucia reporter activity", "setting": "RAW-Dual [3]; [5]", "result": 0.732},
      {"measurement": "IRF Lucia reporter activity", "setting": "RAW-Dual [3]; agonist: LPS (TLR4) 0.1 ug/mL", "result": 1.42}
    ]},
    {"smiles": "CC(=O)N1CCCC1C(=O)NC(Cc1c[nH]cn1)C(=O)NC(CO)C(=O)NC(CS)C(=O)NC(CC(N)=O)C(N)=O", "note": "(stereo not given) (library stock concentration (final ~1000-fold dilution): 10 mM water)", "values": [
      {"measurement": "IRF Lucia reporter activity", "setting": "RAW-Dual [3]; [5]", "result": 1.54},
      {"measurement": "IRF Lucia reporter activity", "setting": "RAW-Dual [3]; agonist: LPS (TLR4) 0.1 ug/mL", "result": 1.03}
    ]},
    {"smiles": "CC(C)NC(=N)NC(=N)Nc1ccc(Cl)cc1", "note": "(library stock concentration (final ~1000-fold dilution): 10 mM)", "values": [
      {"measurement": "IRF Lucia reporter activity", "setting": "RAW-Dual [3]; [5]", "result": 1.04},
      {"measurement": "IRF Lucia reporter activity", "setting": "RAW-Dual [3]; agonist: LPS (TLR4) 0.1 ug/mL", "result": 1.54}
    ]},
    {"smiles": "CC(C)NC(=N)NC(=N)Nc1ccc(Cl)cc1", "values": [
      {"measurement": "IRF Lucia reporter activity", "setting": "RAW-Dual [1]; [4]", "result": 1.34}
    ]},
    {"smiles": "CC(C)n1cnc2c(NCCc3ccc(O)cc3)nc(-c3csc4ccccc34)nc21", "values": [
      {"measurement": "IRF Lucia reporter activity", "setting": "RAW-Dual [1]; [4]", "result": 1.81}
    ]},
    {"smiles": "CC(C)n1cnc2c(NCCc3ccc(O)cc3)nc(-c3csc4ccccc34)nc21", "note": "(library stock concentration (final ~1000-fold dilution): 10 mM)", "values": [
      {"measurement": "IRF Lucia reporter activity", "setting": "RAW-Dual [3]; [5]", "result": 0.24},
      {"measurement": "IRF Lucia reporter activity", "setting": "RAW-Dual [3]; agonist: LPS (TLR4) 0.1 ug/mL", "result": 0.622}
    ]},
    {"smiles": "CC(CS)C(=O)N1CCCC1C(=O)O", "note": "(stereo not given) (library stock concentration (final ~1000-fold dilution): 10 mM)", "values": [
      {"measurement": "IRF Lucia reporter activity", "setting": "RAW-Dual [3]; [5]", "result": 1.11},
      {"measurement": "IRF Lucia reporter activity", "setting": "RAW-Dual [3]; agonist: LPS (TLR4) 0.1 ug/mL", "result": 0.934}
    ]},
    {"smiles": "CC(CS)C(=O)N1CCCC1C(=O)O", "note": "(stereo not given)", "values": [
      {"measurement": "IRF Lucia reporter activity", "setting": "RAW-Dual [1]; [4]", "result": 0.97}
    ]},
    {"smiles": "Cc1nc2c(O)cccc2c(=O)[nH]1", "note": "(library stock concentration (final ~1000-fold dilution): 10 mM)", "values": [
      {"measurement": "IRF Lucia reporter activity", "setting": "RAW-Dual [3]; [5]", "result": 1.12},
      {"measurement": "IRF Lucia reporter activity", "setting": "RAW-Dual [3]; agonist: LPS (TLR4) 0.1 ug/mL", "result": 0.96}
    ]},
    {"smiles": "O=C(NNc1ccccc1)c1ccncc1", "note": "(library stock concentration (final ~1000-fold dilution): 10 mM)", "values": [
      {"measurement": "IRF Lucia reporter activity", "setting": "RAW-Dual [3]; [5]", "result": 0.679},
      {"measurement": "IRF Lucia reporter activity", "setting": "RAW-Dual [3]; agonist: LPS (TLR4) 0.1 ug/mL", "result": 1.01}
    ]},
    {"smiles": "Cn1c(=O)c(F)c(Nc2ccc(I)cc2F)c2c(=O)n(CC(O)CO)cnc21", "note": "(stereo not given) (library stock concentration (final ~1000-fold dilution): 10 mM)", "values": [
      {"measurement": "IRF Lucia reporter activity", "setting": "RAW-Dual [3]; [5]", "result": 0.517},
      {"measurement": "IRF Lucia reporter activity", "setting": "RAW-Dual [3]; agonist: LPS (TLR4) 0.1 ug/mL", "result": 0.819}
    ]},
    {"smiles": "Cn1c(=O)c(F)c(Nc2ccc(I)cc2F)c2c(=O)n(CC(O)CO)cnc21", "note": "(stereo not given)", "values": [
      {"measurement": "IRF Lucia reporter activity", "setting": "RAW-Dual [1]; [4]", "result": 1.23}
    ]},
    {"smiles": "c1cc(CN2CCCNCCNCCCNCC2)ccc1CN1CCCNCCNCCCNCC1", "note": "(library stock concentration (final ~1000-fold dilution): 2 mM water)", "values": [
      {"measurement": "IRF Lucia reporter activity", "setting": "RAW-Dual [3]; [5]", "result": 1.1},
      {"measurement": "IRF Lucia reporter activity", "setting": "RAW-Dual [3]; agonist: LPS (TLR4) 0.1 ug/mL", "result": 0.745}
    ]},
    {"smiles": "C#Cc1cccc(Nc2ncnc3cc(OC)c(NC(=O)N4CC5CCN(C)C5C4)cc23)c1", "note": "(stereo not given) (library stock concentration (final ~1000-fold dilution): 10 mM)", "values": [
      {"measurement": "IRF Lucia reporter activity", "setting": "RAW-Dual [3]; [5]", "result": 0.535},
      {"measurement": "IRF Lucia reporter activity", "setting": "RAW-Dual [3]; agonist: LPS (TLR4) 0.1 ug/mL", "result": 0.922}
    ]},
    {"smiles": "CC(=O)O[C@@H]1CC[C@@]2(C)[C@@H](CC[C@]3(C)[C@@H]2C(=O)C=C2[C@@H]4[C@@H](C)[C@H](C)CC[C@]4(C)CC[C@]23C)[C@@]1(C)C(=O)O", "note": "(library stock concentration (final ~1000-fold dilution): 10 mM)", "values": [
      {"measurement": "IRF Lucia reporter activity", "setting": "RAW-Dual [3]; [5]", "result": 1.12},
      {"measurement": "IRF Lucia reporter activity", "setting": "RAW-Dual [3]; agonist: LPS (TLR4) 0.1 ug/mL", "result": 0.479}
    ]},
    {"smiles": "C=CC1(C)CC(OC(=O)CSCCN(CC)CC)C2(C)C(C)CCC3(CCC(=O)C32)C(C)C1O", "note": "(stereo not given)", "values": [
      {"measurement": "IRF Lucia reporter activity", "setting": "RAW-Dual [1]; [4]", "result": 1.03}
    ]},
    {"smiles": "C=CC1(C)CC(OC(=O)CSCCN(CC)CC)C2(C)C(C)CCC3(CCC(=O)C32)C(C)C1O", "note": "(stereo not given) (library stock concentration (final ~1000-fold dilution): 10 mM)", "values": [
      {"measurement": "IRF Lucia reporter activity", "setting": "RAW-Dual [3]; [5]", "result": 0.332},
      {"measurement": "IRF Lucia reporter activity", "setting": "RAW-Dual [3]; agonist: LPS (TLR4) 0.1 ug/mL", "result": 1.46}
    ]},
    {"smiles": "O=C(O)CN(CC(=O)O)c1ccccc1OCCOc1ccccc1N(CC(=O)O)CC(=O)O", "note": "(library stock concentration (final ~1000-fold dilution): 10 mM)", "values": [
      {"measurement": "IRF Lucia reporter activity", "setting": "RAW-Dual [3]; [5]", "result": 0.984},
      {"measurement": "IRF Lucia reporter activity", "setting": "RAW-Dual [3]; agonist: LPS (TLR4) 0.1 ug/mL", "result": 1.2}
    ]},
    {"smiles": "Cc1cc(C#N)cc(C)c1Oc1nc(Nc2ccc(C#N)cc2)nc(N)c1Br", "values": [
      {"measurement": "IRF Lucia reporter activity", "setting": "RAW-Dual [1]; [4]", "result": 2.4}
    ]},
    {"smiles": "Cc1cc(C#N)cc(C)c1Oc1nc(Nc2ccc(C#N)cc2)nc(N)c1Br", "note": "(library stock concentration (final ~1000-fold dilution): 10 mM)", "values": [
      {"measurement": "IRF Lucia reporter activity", "setting": "RAW-Dual [3]; [5]", "result": 1.09},
      {"measurement": "IRF Lucia reporter activity", "setting": "RAW-Dual [3]; agonist: LPS (TLR4) 0.1 ug/mL", "result": 2.87}
    ]},
    {"smiles": "COC(=O)c1ccc(O)c(O)c1", "note": "(library stock concentration (final ~1000-fold dilution): 10 mM)", "values": [
      {"measurement": "IRF Lucia reporter activity", "setting": "RAW-Dual [3]; [5]", "result": 0.264},
      {"measurement": "IRF Lucia reporter activity", "setting": "RAW-Dual [3]; agonist: LPS (TLR4) 0.1 ug/mL", "result": 0.878}
    ]},
    {"smiles": "CNS(=O)(=O)CC1CCC(N(C)c2ncnc3[nH]ccc23)CC1.O=C(O)/C=C\\C(=O)O", "note": "(stereo not given) (library stock concentration (final ~1000-fold dilution): 10 mM)", "values": [
      {"measurement": "IRF Lucia reporter activity", "setting": "RAW-Dual [3]; [5]", "result": 0.106},
      {"measurement": "IRF Lucia reporter activity", "setting": "RAW-Dual [3]; agonist: LPS (TLR4) 0.1 ug/mL", "result": 0.264}
    ]}
  ]
}
